According to the supplement of paper PMC8512760:
Structures can show the parent of a compound that is named as a salt. The list shows a part of the results. Many values rest on one well or one pass, so single values are uncertain.

Legend:
Assay in all cases: cell viability relative to vehicle (% of vehicle); basal-like triple-negative breast cancer lines; higher = less cytotoxic
Conditions in all cases: 10 µM; 72 h
HCC-1143 = system: HCC-1143
HCC-1187 = system: HCC-1187
MDA-468 = system: MDA-468
SUM-149 = system: SUM-149
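Also: stably firefly luciferase-GFP labeled cells in 96-well plates, viability read as luciferase photon flux after d-luciferin addition, treated wells normalized to vehicle wells, single-dose high-throughput screen.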

| SMILES | cell viability (HCC-1143) | cell viability (HCC-1187) | cell viability (MDA-468) | cell viability (SUM-149) |
| --- | --- | --- | --- | --- |
| CN1CCCC(n2nc(Cc3ccc(Cl)cc3)c3ccccc3c2=O)CC1.Cl (stereo unspecified) [Azelastine HCl] | 81.6 | 83.5 | 98.7 | 87.4 |
| NNC(=O)c1ccncc1.Nc1ccc(C(=O)O)c(O)c1 [Pasiniazid] | 71 | 108 | 115 | 86.6 |
| CCN(CC)CCOCCOC(=O)C(CC)(CC)c1ccccc1.O=C(O)CC(O)(CC(=O)O)C(=O)O [Oxeladin Citrate] | 73.5 | 116 | 113 | 95.2 |
| O=C(O)c1ccccc1O [Salicylic acid] | 82.2 | 90.8 | 121 | 117 |
| CO[C@@]1(NC(=O)[C@H](C(=O)[O-])c2ccc(O)cc2)C(=O)N2C(C(=O)[O-])=C(CSc3nnnn3C)CO[C@@H]21.[Na+].[Na+] [Moxalactam (sodium salt)] | 111 | 103 | 109 | 108 |
| COc1ccc(CNc2nc(N3CCCC3CO)ncc2C(=O)NCc2ncccn2)cc1Cl (stereo unspecified) [Avanafil] | 135 | 74.9 | 114 | 121 |
| COC(=O)N=NC=C1C=[N+]([O-])c2ccccc2N1O [Carbadox] | 81.2 | 94.9 | 84.3 | 104 |
| S=c1nc[nH]c2nc[nH]c12 [Mercaptopurine (6-MP)] | 72.2 | 71.3 | 74.5 | 156 |
| CC(=O)OC1CC2CCC3C(CCC4(C)C3CC([N+]3(C)CCCCC3)C4OC(C)=O)C2(C)CC1N1CCCCC1.[Br-] (stereo unspecified) [Vecuronium Bromide] | 91.2 | 117 | 91.8 | 112 |
| COc1nc2ccc(Br)cc2cc1[C@@H](c1ccccc1)[C@@](O)(CCN(C)C)c1cccc2ccccc12 [Bedaquiline fumarate] | 107 | 97.6 | 111 | 80.2 |
| COCCCN1CCC(NC(=O)c2cc(Cl)c(N)c3c2OCC3)CC1 [Prucalopride] | 72 | 86.5 | 105 | 101 |
| C=CCNC1=C2CC(C)CC(OC)C(O)C(C)C=C(C)C(OC(N)=O)C(OC)C=CC=C(C)C(=O)NC(=CC1=O)C2=O (stereo unspecified) | 46.8 | 42 | 41 | 55.8 |
| CC(CCC(=O)O)C1CCC2C3C(O)CC4CC(O)CCC4(C)C3CCC12C (stereo unspecified) [Chenodeoxycholic Acid] | 71.2 | 74.6 | 106 | 147 |
| CO/N=C(\C(=O)N[C@@H]1C(=O)N2C(C(=O)O)=C(CSc3nc(=O)c(O)nn3C)CS[C@H]12)c1csc(N)n1 [Ceftriaxone Sodium Trihydrate] | 75.1 | 100 | 107 | 90.1 |
| NS(=O)(=O)c1cc2c(cc1Cl)NCNS2(=O)=O [Hydrochlorothiazide] | 99.2 | 133 | 123 | 108 |
| Cl.OC(CNCC(O)C1CCc2cc(F)ccc2O1)C1CCc2cc(F)ccc2O1 (stereo unspecified) [Nebivolol] | 81.6 | 72.6 | 87.3 | 55 |
| CC(O)(P(=O)(O)O)P(=O)(O)O [Etidronate] | 84.5 | 91.6 | 126 | 86.1 |
| Cl.N#Cc1ccc2[nH]cc(CCCCN3CCN(c4ccc5oc(C(N)=O)cc5c4)CC3)c2c1 [Vilazodone Hydrochloride] | 103 | 102 | 95.1 | 120 |
| Nc1c(CC(=O)[O-])cccc1C(=O)c1ccc(Br)cc1.[Na+] [Bromfenac Sodium] | 85.7 | 109 | 107 | 91.6 |
| Cc1cc(Nc2cc(N3CCN(C)CC3)nc(Sc3ccc(NC(=O)C4CC4)cc3)n2)n[nH]1 [VX-680 (MK-0457,Tozasertib)] | 93.2 | 26.1 | 64.9 | 155 |
| CCn1cc(C(=O)O)c(=O)c2cc(F)c(N3CCNC(C)C3)c(F)c21.Cl (stereo unspecified) [Lomefloxacin HCl] | 68.3 | 73.2 | 97.2 | 81.1 |
| O=C(NCC(O)CO)c1ccncc1Nc1ccc(I)cc1F (stereo unspecified) | 90.7 | 106 | 52 | 133 |
| CCOC(=O)C1=CC(OC(CC)CC)C(NC(C)=O)C(N)C1.O=P(O)(O)O (stereo unspecified) [Oseltamivir phosphate] | 72.1 | 79 | 94.4 | 94.5 |
| CCc1c2c(nc3ccc(OC(=O)N4CCC(N5CCCCC5)CC4)cc13)-c1cc3c(c(=O)n1C2)COC(=O)C3(O)CC (stereo unspecified) [Irinotecan] | 112 | 54.1 | 76.3 | 119 |
